PubChem BioAssay AID686979 (National Center for Advancing Translational Sciences (NCATS), 2013)
The whole screen tested about 420,000 compounds, of which about 50,000 (12%) were called active. The shares of active, inactive and inconclusive entries below differ from those in the screen. Calls come from the whole dose curve; as a rule, active = well fitted inhibition curve with a large enough effect; inconclusive = small, poorly fitted or top-dose-only effect; inactive = flat fitted curve, though single readings scatter. Potencies of inconclusive entries are left out as doubtful fits.
% is set by controls: 0 for no effect and ±100 for the full control effect; potency is the fitted concentration of half-maximal effect; tags give direction and shape of the fitted curve.

Assay: qHTS for Inhibitors of human tyrosyl-DNA phosphodiesterase 1 (TDP1): qHTS in cells in presence of CPT; note: nearly all actives have a fitted effect of over 55% in size
Details: chicken DT40 Tdp1-/-;hTDP1 cells + 20 nM CPT, ATP luminescence, 48 h; activity change, negative = growth inhibition: at 46.2 µM (top of the series) unless noted
In short: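 Chicken DT40 Tdp1-/- cells complemented with human TDP1, 400 cells/well, exposed to compounds plus 20 nM camptothecin for at least 48 h at 37 C; viability read as ATP content by CellTiter-Glo luminescence.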
In the case of `Cc1cc(C)c2nc(N3CCCC(C(=O)NCCN4CCOCC4)C3)sc2c1` (configuration not stated), the Potency is reported as inconclusive [inhibitor, single point]. With `c1ccc(CCNc2ncnc3sccc23)nc1` the Potency was active: 6.51 µM. For `CCCCOC(=O)Cn1c(=O)n(CC(=O)OCCCC)c2cc(C)ccc21`, the “activity change, negative = growth inhibition” value was inactive: -31.3%. In the case of `N#CC1(NC(=O)CSc2nnc(-c3ccccc3F)o2)CCCCC1`, the “activity change, negative = growth inhibition” value is reported as inactive: -8.69%. For `CC12CCC(=O)N1C(C(=O)NNC(=O)COc1ccccc1Cl)CS2` (configuration not stated), the Potency was inconclusive [inhibitor, single point]. In the case of `COCCNC(=S)Nc1ccc2nsnc2c1`, the Potency is reported as inconclusive [inhibitor, single point]. For `CCOc1ccc(NC(=O)Nc2cccc(C(=O)O)c2)cc1`, the “activity change, negative = growth inhibition” value was inactive: -20.3%. With `O=C(C[C@H]1C/C=C\CC[C@H](Cc2ccc(F)cc2)C(=O)OC[C@@H]2CCCN2C1=O)N[C@H](CO)Cc1ccccc1` the Potency was active: 25.9 µM. In the case of `CCCCNC(=S)Nc1ccc2nc(N3CCN(CC)CC3)cc(C)c2c1`, the Potency is reported as active: 23.1 µM. In the case of `O=C(CSc1nnc2scc(-c3ccccc3)n12)N1CCN(Cc2ccccc2)CC1`, the “activity change, negative = growth inhibition” value is reported as inactive: -28%. With `O=C(c1ccccc1)C(Nc1ccccn1)c1ccccc1` (configuration not stated) the “activity change, negative = growth inhibition” value was inactive: -19.8%. With `CC(NCCC(Cc1ccccc1)c1ccco1)c1ccccc1` (configuration not stated) the Potency was inconclusive [inhibitor, single point]. With `Cc1cc(C(=O)N/N=C/c2ccc(N(C)C)cc2)c2ccccc2n1` the Potency was active: 2.91 µM. For `CCc1ccc(C(=O)NNC(=O)C2CC(=O)N(Cc3ccccc3)C2)cc1` (configuration not stated), the “activity change, negative = growth inhibition” value was inactive: -13.8%. With `CCOc1cccc(C(=O)NC(=S)Nc2ccccc2)c1` the Potency was inconclusive [inhibitor, single point]. In the case of `COc1ccccc1NS(=O)(=O)c1cc([N+](=O)[O-])ccc1N/N=C/c1sc(N2CCOCC2)nc1-c1ccccc1`, the Potency is reported as inconclusive [inhibitor, single point]. For `O=C(Cc1ccccc1F)NC1CCCc2ccccc21` (configuration not stated), the Potency was inconclusive [inhibitor, single point]. With `Cc1ccc(NC(=O)CSc2ncnc3ccccc23)cc1S(=O)(=O)N1CCOCC1` the Potency was inconclusive [inhibitor, partial curve]. With `Cc1cc2cc3c(cc2nc1SCC(=O)Nc1c(C)cccc1C)CCC3` the Potency was inconclusive [inhibitor, single point]. For `CCCCn1nnnc1C(c1ccccc1)N1CCCN(Cc2ccc(F)cc2)CC1` (configuration not stated), the Potency was inconclusive [inhibitor, single point]. With `CC(=O)OCC(CCn1cnc2cnc(N)nc21)COC(C)=O` the “activity change, negative = growth inhibition” value was inactive: 0.214%. With `O=C(Nc1nc(-c2cc3ccccc3oc2=O)cs1)c1ccco1` the Potency was inconclusive [inhibitor, full curve]. With `COc1ccc(NC(=O)CSCc2ccc(C)cc2)cc1` the Potency was inconclusive [inhibitor, partial curve]. For `COc1ccc(-c2nc3cncnc3n(-c3ccccc3)c2=O)cc1`, the “activity change, negative = growth inhibition” value was inactive: -9.08%. For `CCOC(=O)[C@]12CCCC=C1N(Cc1cccc3ccccc13)C(=O)[C@H](CC(=O)NCc1ccc(C)o1)C2`, the Potency was inconclusive [inhibitor, single point]. In the case of `Oc1c(/C=C/C=C/C=Nc2ccccc2)sc(=S)n1Cc1ccccc1`, the Potency is reported as inconclusive [inhibitor, single point]. With `NC(=O)C1CCN(c2oc(-c3ccc(F)cc3)nc2S(=O)(=O)c2ccccc2)CC1` the Potency was inconclusive [inhibitor, single point]. With `COc1ncc2ncc(=O)n(C[C@H]3CCCO3)c2n1` the “activity change, negative = growth inhibition” value was inactive: 0.0791%. With `CC(c1ccccc1)n1cnc2ccccc21` (configuration not stated) the Potency was inconclusive [inhibitor, partial curve]. In the case of `CC(C)CNC(=O)c1cc([N+](=O)[O-])ccc1N1CCCCC1`, the Potency is reported as inconclusive [inhibitor, single point]. In the case of `COC(=O)c1ccccc1Sc1c(/C=N/OC(=O)c2ccccc2)c(C(F)(F)F)nn1C`, the Potency is reported as inconclusive [inhibitor, single point]. With `CCCCNC(=O)C[C@@H]1C[C@@]2(C(=O)OCC)CCCC=C2N(CCC2=CCCCC2)C1=O` the Potency was active: 8.2 µM. For `CCCN1C2CCCC1CC(NC(=O)c1ccc(OC)cc1)C2` (configuration not stated), the “activity change, negative = growth inhibition” value was inactive: -3.64%. In the case of `O=C1CCCN1CC(=O)N1CCCC(N2CCN(c3cccc(Cl)c3)CC2)C1` (configuration not stated), the “activity change, negative = growth inhibition” value is reported as inactive: -16.7%. In the case of `Cc1cc2c(cc3c(SCc4cccc(Cl)c4)nnc(C)n32)o1`, the Potency is reported as inconclusive [inhibitor, single point]. For `CC(C)NC(=O)N(Cc1ccc(Cl)cc1)Cc1cccs1`, the Potency was inconclusive [inhibitor, single point]. For `CCC(Cn1nnc2ccccc2c1=O)NC(=O)Nc1cc(OC)cc(OC)c1` (configuration not stated), the Potency was inconclusive [inhibitor, single point]. With `CC1CN(C(=O)/C=C/c2ccc(SC(F)F)cc2)CC(C)O1` (configuration not stated) the Potency was inconclusive [inhibitor, single point]. With `O=C1c2cccc3c(Cl)ccc(c23)C(=O)N1O` the Potency was inconclusive [inhibitor, partial curve, poor fit]. With `C[C@H](CN1CCCC1)C(=O)c1ccc(C(F)(F)F)cc1` the “activity change, negative = growth inhibition” value was inactive: 6.36%. In the case of `COc1ccc2[nH]c(=O)c(C(c3nnnn3C3CCCC3)N3CCN(Cc4ccc5c(c4)OCO5)CC3)cc2c1` (configuration not stated), the Potency is reported as active: 25.9 µM. For `COCCNC(=O)COc1cccc(Oc2ccccc2)c1`, the Potency was inconclusive [inhibitor, full curve, poor fit]. With `COc1cccc(N2CCN(C(=O)c3ccc4c(Cl)c5c(nc4c3)CCCC5)CC2)c1` the Potency was active: 20.6 µM. For `CCc1ccc(NC(=O)CSC2=Nc3ccccc3C3=NC(CC(=O)NCc4cccs4)C(=O)N23)cc1` (configuration not stated), the Potency was active: 7.31 µM. With `Cc1ccc(CN2CCN(Cc3nc(C(C)C)cs3)CC2CCO)cc1` (configuration not stated) the Potency was inconclusive [inhibitor, single point]. For `Cc1ccc2oc(-c3ccc(NC(=O)c4cccnc4)cc3)nc2c1`, the Potency was inconclusive [inhibitor, single point]. With `CSc1cccc(N2CC(C(=O)N3CCN(S(=O)(=O)c4ccccc4Cl)CC3)CC2=O)c1` (configuration not stated) the Potency was inconclusive [inhibitor, single point].
